Measurements as given in the supplement of paper PMC10441789.
Some of the results follow. Antibody binding of pooled human sera (four to six donors per pool; dilution not stated) to peptides of the Trypanosoma cruzi antigen TSSA on microarrays. Quantile-normalised fluorescence in arbitrary units, mean of duplicate arrays; higher = more binding. No active / inactive call. The uninfected pools are read here as the healthy donors of the same country. The strongest signals lie near the top of the scale (about 60,000).

Tests used:
Test in all cases: antibody binding signal (normalised fluorescence) (arbitrary fluorescence units); higher = stronger serum antibody binding to peptide
[1] = tested on: pooled sera of chronic Chagas disease patients, Argentina
Description: (§1)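 Microarray of 15-residue peptides over residues 30-55 of Trypanosoma cruzi TSSAII, each with 1 to 10 substitutions at naturally variable positions, probed with one serum pool per country.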

[2] = tested on: pooled sera of chronic Chagas disease patients, Bolivia
Description: as §1

[3] = tested on: pooled sera of chronic Chagas disease patients, Brazil
Description: as §1

[4] = tested on: pooled sera of chronic Chagas disease patients, Colombia
Description: as §1

[5] = tested on: pooled sera of chronic Chagas disease patients, Mexico
Description: as §1

[6] = tested on: pooled sera of chronic Chagas disease patients, USA
Description: as §1

[7] = tested on: pooled sera of uninfected people, Argentina
Description: as §1

[8] = tested on: pooled sera of uninfected people, Bolivia
Description: as §1

[9] = tested on: pooled sera of uninfected people, Brazil
Description: as §1

[10] = tested on: pooled sera of uninfected people, Colombia
Description: as §1

[11] = tested on: pooled sera of uninfected people, Mexico
Description: as §1

[12] = tested on: pooled sera of uninfected people, USA
Description: as §1

Sequence | antibody binding signal [1] | antibody binding signal [2] | antibody binding signal [3] | antibody binding signal [4] | antibody binding signal [5] | antibody binding signal [6] | antibody binding signal [7] | antibody binding signal [8] | antibody binding signal [9] | antibody binding signal [10] | antibody binding signal [11] | antibody binding signal [12]
STPPSGKDNKAAAGG | 24800 | 5530 | 7150 | 457 | 22000 | 2790 | 334 | 504 | 124 | 168 | 114 | 135
KKPAAGEAPSQPGAS | 1950 | 6970 | 35700 | 268 | 272 | 8280 | 329 | 203 | 93.2 | 106 | 71.9 | 318
TISTPPSGKEKKAAT | 12700 | 181 | 302 | 343 | 21500 | 599 | 371 | 263 | 120 | 226 | 81.5 | 144
ENKAATGETPSQPGA | 9160 | 7510 | 44200 | 284 | 174 | 14400 | 122 | 878 | 303 | 222 | 216 | 203
KDNKTAAGGTPSQSG | 869 | 201 | 237 | 3230 | 224 | 1580 | 423 | 174 | 334 | 168 | 278 | 155
KDKKTATGGTPSPPG | 307 | 319 | 189 | 1010 | 219 | 1170 | 172 | 75.3 | 104 | 105 | 116 | 85.2
SGKEKKAATGGTPSP | 2810 | 798 | 1690 | 2540 | 3190 | 4040 | 203 | 113 | 189 | 378 | 74.3 | 139
STPPSGTEKKTAAGG | 36300 | 12700 | 29900 | 3650 | 26000 | 4580 | 936 | 272 | 168 | 141 | 133 | 250
TDKKTATGEAPSQSG | 12200 | 30000 | 19000 | 208 | 762 | 20700 | 233 | 121 | 206 | 134 | 190 | 129
GTDNKAAAGEAPSPP | 452 | 317 | 33500 | 226 | 192 | 13500 | 112 | 642 | 1360 | 81.7 | 129 | 88.5
SGTEKKAAAGETPSQ | 744 | 795 | 3060 | 630 | 690 | 2010 | 109 | 603 | 146 | 754 | 177 | 108
PPSGTDKKAATGGAP | 12400 | 4490 | 23400 | 3860 | 31500 | 2490 | 797 | 1040 | 151 | 877 | 2000 | 445
PSGKENKAAAGETPS | 15900 | 9520 | 14900 | 22100 | 21000 | 10700 | 6250 | 2480 | 261 | 742 | 523 | 233
SSTPPSGTDNKTAAG | 47700 | 44700 | 50000 | 1960 | 28900 | 22800 | 1250 | 730 | 1660 | 187 | 293 | 265
PSGTENKPATGETPS | 44500 | 45400 | 48100 | 793 | 1880 | 28900 | 1550 | 1290 | 564 | 330 | 1970 | 638
GKDKKPAAGETPSQS | 536 | 217 | 1990 | 737 | 1080 | 1310 | 99.1 | 120 | 88.3 | 151 | 71 | 73
TEKKTAAGGAPSPSG | 549 | 505 | 252 | 8220 | 1080 | 1530 | 209 | 196 | 208 | 281 | 480 | 283
KDKKAAAGGTPSPPG | 206 | 196 | 148 | 1590 | 211 | 1040 | 113 | 58.5 | 1090 | 109 | 82 | 88.2
GKENKPAAGGTPSPP | 698 | 257 | 2280 | 1640 | 2020 | 5530 | 792 | 359 | 268 | 233 | 158 | 118
TISTPPSGTEKKTAT | 35200 | 5920 | 30600 | 417 | 10700 | 4840 | 960 | 324 | 178 | 137 | 148 | 145
